The RNAGym collection of RNA variant scans (doi:10.1073/pnas.2313332121)
This sample is rich in variants without activity.

B1: TPR 5TU (parent)
chain: GGAUCUUCUCGAUCUAACAAAAAAGACAAAUCUGCCACAAAGCUUGAGAGCAUCUUCGGAUGCAGAGGCGGCAGCCUUCGGUGGCGCGAUAGCGCCAACGUUCUCAACUAUGACACGCAAAACGCGUGCUCCGUUGAAUGGAGUUUAUCAUG

Variants of: B1
Assay: polymerase ribozyme fitness, log enrichment relative to wild type (log ratio); higher = more active; in vitro selection for triplet polymerase activity
Summary of the method: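 A single round of triplicate in vitro selection, including frozen incubation at −7 °C, was applied to PCR-built, transcribed mutant libraries of each subunit of a heterodimeric triplet polymerase ribozyme. Illumina sequencing of input and output libraries retained genotypes with ≥10 input reads and ≥1 read per output. Fitness is the base-2 logarithm of genotype enrichment divided by wild-type enrichment, from inverse-variance-weighted replicate averages.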

| Variant | polymerase ribozyme fitness (log ratio) |
| --- | --- |
| GGAUCUUCUAGAUCUAACAAAAAAGACAAAUCUUCCACAUAGCUUGAGAGCAUCUUUGGAUGCAGAGGCGGCAGCCUGUGGUGCAGCGAUAGCGCCAACGUUCACAACUAUGACACGCACAACGCGUGCUCCGUUGAAUGGAGUUUAUCAUG | ≤ -4.2 |
| GGAUCUUCUGGAUCUAACUAAAAAGACAAAUCUGCCACAAAGCUUGAGAGCAUCUUCGCAUGCAGAGGCGGCAGCCUUCGGUGGCGCGAUAUCGCCAACGUUCUCAACUAUGACACGCAGAACGCGUGCUCCGUGGAAUGGAGUUUAUGAUG | ≤ -4.2 |
| GGAUCUUCUAGAUCUAACAAAAAAGACAAAUUUGCCACAAAGCUUGAGACCAUCGUCGGAUGCAGAGGCGGCAUCCUUCGGUGGCGCGAUAGCGCCAACGUUCUCAACUAUGACACGCAAAACGCGUGCUCCGUUAAAUGGAGUUUAUCAGG | ≤ -4.2 |
| GGAUCUUCUAGAUCUAACAAAAAAGACAAAUCUGCCACAAAGCUUGAGAGCAUCUUCGGAUGCAGAGGCGGCAGCCUUCGGUGGAGCGAUAGCGCCAACGUUCUUAACUAUGACACGCAAAACGCGUGCUCCGUUGAAUGCAGUUUAUCAUG | ≤ -4.2 |
| GGAUCUUCUAGAUCUAACAAAAAAGACAAAUCUGCCACAAAGCUUGAGAGCAUCUUCGGAUGCAGAGGCGGCAGCCUUCGGUGGCGCGAUAGCGCCAACGUGCUCAACUAUGACACGCAAAACGCGUGCUCCGUUGAAUGGAGUUUAUCAUG | ≤ -4.2 |
| GGAUCUUCUAGAUCUAACAAAAAAGACAAAUCUGCCACAAAGAUUGAGAGCAUCUUCGGAUGCAGAGGCGGCAGCAUUAGGUGGCGCGAUAGCGCCAACGAUCUCAACUAUGACACGCAAAACGCGUGCUCCGUUGAAUGGAGGUUAUCAUG | ≤ -4.2 |
| GGAUCUUCUAGAACUAACCAAAAAGAUAAAUCUGCCAUAAAGCUUGAGAGCAUCUUCGGAUGCAGAGGCGGCAGCCUUCGGUAGCGCGAUAGCGCCAACGUUCUGAACUAUGACACGCAAAACGCGUGCUCCGUUGAAUGGAGUUUAUCAUG | ≤ -4.2 |
| GGAUCUUCUAGAUCUAACAAAAAAGACAAAUCUGCCACAAAGCUUGAGAGCAUCUUCGGAUGCAGAGGCGGCAGCCUUCGGUGGCACGAUAGCGCCAACGUUCUCAACUAUGACACGCAAAACGCGUGCUCCGUUGAAUGGAGUUUAUCCUG | ≤ -4.2 |
| GGAUCUUCUAGAUCUAACAAAAAAGACAAAUCUGCCACAAAGCUUGAGAGCAUCUUCGGAUGCAGAGGCGGCAGCCUUCGGUGGCGGCAUAGCGGCAACGUUCUCAACUAUGACACGCAAAACGCGUGCUCCGUUGAAUAGAGUUUAUCAUG | ≤ -4.2 |
| GGAUCUUCUGGAUCUUACAAAAAAGACAAAUCUGCCACAAAGCUUGAGCGGUUCUACGGAUGCAGAGGCGGCAGCCUUCGGUGGCGCGAUAGCGCCAACGUUGUCAACUAUGACACGCAAAACGCGUGCUCCGUUGAAUGGAGUUAAUCAUG | ≤ -4.2 |
| GGAUCUUCUAGAUCUAACAAAAAAGACAAAUCUUCCACAAAGCUUGAGAGCAUCUUUGGAUGCAGAGGCGGCAGCUUUCGGUGGCGCGAUAGCGGCAACGUUCUCAACUAUGACAGGCAAAACGCGUGCUCCGUUGAAUGGAGUUUAUCAUG | ≤ -4.2 |
| GGAUCUUCUGGAUCUAACAGAAAAGACAAAUCUGCCACAAAGCUUGAGAGCAUCAUCGGAUGCAGAGGCGGCAGCCUUCUGUGGGGCGAUAGCGCCAACGUUCUCAACUAUGACAUGCAAAACGCGUGCACCGUUGAAUGGAGUUUAUCAUA | ≤ -4.2 |
| GGAUCUUCUAGAACUAACAAAAAAGACAAAUCUGCCACAAAGCUUGAGAGCAACUUCGGAUGCAGAGGCGGCAGCCUUCGGUGGCGCGAUAGCGCCAACGUUCUCAACUAUGACACGCAAAACGCGUGCUCCGUUGAAUGGAGAUUAUCAUG | ≤ -4.2 |
| GGAUCUUCUAGAUCUAACAAAAAAGACAAAUCUGCCACAAAGCUUGAGACCAUCUUCGGAUGCAGAGGCGGCAGCCUUCGGUGGAGCGAUAGCGCCAACGUUCUCAACUAUGACUCGUAAAACGCGUGCUCCGUUGAAUGGAGUUUAUCAUG | ≤ -4.2 |
| GGAUCUUCUAGAUCUAACAAAAAAGACAAAUCUGCCACAAAGCUUUAGAGCAUCUUCGGAAGCAGAGGCGGCAGCCUUCGGUGGCGCGAUAGUGCCAACGUUCUCGACUAUGACACGCAAAACGCGUGCUCCGUUGAAUGGAGUUUAUCAUG | ≤ -4.2 |
| GGAUCUUCUAGAUCUAACAAAAAAGACAAAUCUGCCACAAAGCUUGAAAGCAUCAUCGCAUGCAGAGGCGGCAGCCUUCGGUGGGGCGAUAGCGCCAACGUUCUCAACUAUGACACGCAAAACGCGUGCUCCGUUGAAUGGAGUUUAUCAUG | ≤ -4.2 |
| GGAUCUUCUAGAUCUAACAAAAAAGACAAACCUGCCACAAAGCUUGAGAGCAUCUUCGGAUGCAGAGGCGGCAGCCUUCGGUGGCGCGAUAGCGCCAACGUUCUCAAUUAUGACACGCAAAACGCGUGCUCCGUUGCAUAGAGUUUAACAUG | ≤ -4.2 |
| GGAUCUUCUAGAUCAAACAAAAAAGACAAAUCUGCCACAAAGCUUGAGAGCAUCUUCCGAUGCAGAGGCGGCGGCCUUCGGUGGCGCGAUAGCGCGAACGUUCUCAACUAUGACACGCAAAACGCGUGCUCCGUUGUAUGGAGUUUAUCAUG | ≤ -4.2 |
| GGAUCUUCUAGAUCUAACAAAAAAGACAAAUCUGCCACAAAGCUAGAGAGCAUUUUCGGAUGAAGAGGCGGAAGCCUUCGGUGGCGCGAUAGAGCCAACGUUCUCAACUAUCACACGCAAAACGCGUGCUCCGUUGAAUGGAGUUUAUCAUG | ≤ -4.2 |
